Laboratory results as given in PubChem BioAssay AID1768 (National Center for Advancing Translational Sciences (NCATS), 2009).
“And” between values parts separate entries of the source, which are not always exact repeats. Equal values may be shown once. Screen size: about 270,000 compounds; about 620 (0.23%) were called active. Inconclusive results, whose numbers are uncertain, are shown with a selection of clear calls. The call rests on the fitted dose curve; in most records, active means well fitted inhibition curve with a large enough effect in the polarisation, with a control signal flat (not every such curve was filed as active); inconclusive means small, poorly fitted or top-dose-only effect, or effect the other way, or a change in a side signal; inactive means no such curve, though single readings can be large or run the other way; the % refers to the polarisation. Potencies beside an inconclusive call are fits to weak or partial responses and may not hold up. “Side channel” marks fits to a control or component signal instead of the main read-out.

target: Menin (Homo sapiens) (UniProt O00255); assay: qHTS Assay for Inhibitors Targeting the Menin-MLL Interaction in MLL Related Leukemias: Competition With Texas Red Labeled MLL-derived Mutant Peptide; settings: fluorescence polarization; FP activity change, negative = inhibition: at 61.6 µM (top of the series); on FP activity change, negative = inhibition: % of control where 0% means no effect
Chain of UniProt O00255 (O00255 whole entry, looked up): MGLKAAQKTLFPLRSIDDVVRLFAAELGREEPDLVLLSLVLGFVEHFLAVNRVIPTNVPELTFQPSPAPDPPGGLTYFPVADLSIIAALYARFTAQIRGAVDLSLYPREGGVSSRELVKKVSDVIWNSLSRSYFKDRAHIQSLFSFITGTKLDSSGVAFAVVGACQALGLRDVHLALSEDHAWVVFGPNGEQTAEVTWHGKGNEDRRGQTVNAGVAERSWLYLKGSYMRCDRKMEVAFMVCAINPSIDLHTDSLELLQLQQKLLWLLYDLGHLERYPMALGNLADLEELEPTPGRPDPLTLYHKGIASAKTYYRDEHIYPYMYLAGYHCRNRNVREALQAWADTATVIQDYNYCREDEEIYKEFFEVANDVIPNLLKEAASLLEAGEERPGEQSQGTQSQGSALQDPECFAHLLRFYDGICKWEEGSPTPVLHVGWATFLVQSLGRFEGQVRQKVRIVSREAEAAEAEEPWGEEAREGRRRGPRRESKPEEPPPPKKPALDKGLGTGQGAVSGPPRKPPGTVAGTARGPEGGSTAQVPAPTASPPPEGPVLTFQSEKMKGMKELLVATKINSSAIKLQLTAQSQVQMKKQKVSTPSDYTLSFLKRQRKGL
Potency means the concentration at half of the fitted maximal effect; tags describe the fitted curve by direction and shape or compound fluorescence and quenching.

| Compound | Potency | FP activity change, negative = inhibition |
| --- | --- | --- |
| Cc1ccc(NC(=O)CCc2nnc3ccc(NCc4ccco4)nn23)cc1 | inconclusive: 28.2 µM [quencher, side channel, single point] |  |
| O=C(CN1CCCCC1)N/N=C/c1ccccc1OCc1ccccc1 |  | inactive: -1.16% |
| Cc1cccc(NC(=O)CN(c2ccc(F)cc2)S(C)(=O)=O)c1 | inconclusive: 1.26 µM [fluorescent, side channel, full curve] |  |
| O=C1CC(=Nc2ccccc2)NN1c1ccccc1 | inconclusive: 15.8 µM [quencher, side channel, partial curve] |  |
| Cc1ccc(-c2nc(N)n(S(C)(=O)=O)n2)cc1 | inconclusive: 3.16 µM [inhibitor, partial curve] |  |
| COc1ccc(C(=O)/C=C/Nc2ccc(S(=O)(=O)Nc3ncccn3)cc2)cc1 | inconclusive: 11.2 µM [inhibitor, partial curve, poor fit] |  |
| Cc1ccc(OCC(=O)NNC(=S)NC(=O)c2ccc(Br)o2)c(C)c1 | inconclusive: 31.6 µM [quencher, side channel, single point] |  |
| Cc1nc2ccc(NC(=O)c3cc([N+](=O)[O-])cc([N+](=O)[O-])c3Cl)cc2s1 | inconclusive: 11.2 µM [quencher, side channel, partial curve] |  |
| Nc1nc(-c2ccccc2)nn1S(=O)(=O)c1ccccc1 | inconclusive: 31.6 µM [quencher, side channel, single point] |  |
| Cc1c(C(=O)O)c(O)cc2c1C(=O)c1c(O)c([C@H]3O[C@H](CO)[C@@H](O)[C@H](O)[C@H]3O)c(O)c(O)c1C2=O | inconclusive: 39.8 µM [inhibitor, single point] and inconclusive: 10 µM [inhibitor, partial curve] |  |
| COc1ccc(COc2cc(-c3cccc(OC)c3)nc3ccc(N)cc23)cc1 | inconclusive: 10 µM [quencher, side channel, partial curve] and inconclusive: 20 µM [quencher, side channel, partial curve] |  |
| Cc1cc(NCC2CCCCC2)nc2ccccc12 | inconclusive: 14.1 µM [inhibitor, partial curve] |  |
| CCOc1cc(/C=C2\SC(=O)N(CC(=O)Nc3ccccc3F)C2=O)cc([N+](=O)[O-])c1O | inconclusive: 14.1 µM [quencher, side channel, partial curve] |  |
| NS(=O)(=O)c1ccc(NC(=O)c2cc(-c3cccs3)nc3ccccc23)cc1 | inconclusive: 25.1 µM [quencher, side channel, partial curve] |  |
| Cc1ccc(/C=C(\C#N)C(=O)Nc2cccc3ncccc23)o1 | inconclusive: 31.6 µM [quencher, side channel, single point] |  |
| O=C(NC(=S)Nc1ccc(S(=O)(=O)Nc2ccccc2)cc1)C1CC1 | inconclusive: 28.2 µM [quencher, side channel, single point] |  |
| Cc1ccc(CN(C(=O)c2ccco2)C(C(=O)NC2CCCC2)c2ccc(N3CCOCC3)cc2)cc1 (stereo not given) | inconclusive: 6.31 µM [fluorescent, side channel, full curve, poor fit] |  |
| COc1cc(CNCc2ccccn2)ccc1OCc1ccc(Cl)c(Cl)c1 | inconclusive: 28.2 µM [fluorescent, side channel, single point] |  |
| Cc1ccccc1OCCCC(=O)Nc1ccccc1C(F)(F)F | inconclusive: 8.91 µM [fluorescent, side channel, partial curve] |  |
| O=C(Nc1cc(C(F)(F)F)ccc1-n1cncn1)c1ccc(Cl)cc1 |  | inactive: 0.161% |
| COc1ccc(CNC(=O)Nc2ccc3c(c2)N(C)C(=O)CS3)cc1 | inconclusive: 39.8 µM [fluorescent, single point] |  |
| CC1CCCN(CC(=O)Nc2cc(Cl)ccc2Oc2ccccc2)C1 (stereo not given) |  | inactive: -19.8% |
| COc1ccccc1/C=N/NC(=O)c1ccccc1NS(=O)(=O)c1ccc(C)cc1 | inconclusive: 31.6 µM [quencher, side channel, partial curve] |  |
| O=C(CSc1nnc(-c2ccccn2)n1Cc1ccccc1)N1CCOCC1 | inconclusive: 11.2 µM [inhibitor, partial curve] |  |
| O=C(/C=C/Nc1ccccc1)c1cnc(-c2ccccc2)s1 | inconclusive: 39.8 µM [inhibitor, single point] |  |
| Cc1ccc(C(=O)Nc2ccc(N3CCOCC3)c3nonc23)cc1[N+](=O)[O-] | inconclusive: 22.4 µM [quencher, side channel, partial curve] |  |
| CN(CCCC1CCCC1)C(=O)CCc1nnc(-c2ccccc2)o1 | inconclusive: 11.2 µM [fluorescent, side channel, partial curve] |  |
| Cc1c(C(=O)N(C)c2ccc(Cl)cc2)cnn1-c1ccccc1 | inconclusive: 3.55 µM [inhibitor, partial curve] |  |

| Compound | Potency | FP activity change, negative = inhibition |
| --- | --- | --- |
| N#C/C(=N\Nc1ccccc1Cl)C(=O)c1ccccc1 | inconclusive: 31.6 µM [quencher, side channel, single point] |  |
| O=C(c1ccc(Br)o1)N(Cc1ccccc1)Cc1ccccc1 | inconclusive: 4.47 µM [fluorescent, side channel, partial curve] |  |
| Cc1cccc(C)c1N1CCN(S(=O)(=O)N2CCCCC2)CC1 | inconclusive: 4.47 µM [fluorescent, side channel, partial curve] |  |
| COc1cc(-c2cc(N)n(S(=O)(=O)c3ccccc3)n2)cc(OC)c1OC | inconclusive: 22.4 µM [quencher, side channel, partial curve] |  |
| Cc1ccc(S(=O)(=O)N2CCN(C(=O)CCC(=O)N3CCc4ccccc43)CC2)cc1 | inconclusive: 35.5 µM [fluorescent, side channel, single point] |  |
| CCOC(=O)C1(CCc2ccccc2)CCN(Cc2c(O)cccc2OC)CC1 | inconclusive: 7.94 µM [fluorescent, side channel, partial curve] |  |
| C[C@H]1[C@H](C)CC[C@]2(C(=O)O)CC[C@]3(C)C(=CCC4[C@@]5(C)CC[C@H](O)C(C)(C)[C@@H]5CC[C@]43C)[C@H]12 (stereo not given in full) | inconclusive: 20 µM [inhibitor, single point] |  |
| CC1(C)Cc2c(sc(NC(=O)c3ccccc3Cl)c2C(=O)O)CO1 | inconclusive: 22.4 µM [quencher, side channel, partial curve] |  |
| COc1cccc(C(=O)Nc2sc3c(c2C(=O)O)CCCC3)c1 | inconclusive: 11.2 µM [quencher, side channel, partial curve] |  |
| O=C(Nc1ccc2c(c1)OCO2)c1ccc([N+](=O)[O-])cc1[N+](=O)[O-] | inconclusive: 20 µM [quencher, side channel, partial curve] |  |
| CN(C)S(=O)(=O)c1ccc(Cl)c(NC(=O)CN2CCN(c3ccccn3)CC2)c1 | inconclusive: 17.8 µM [inhibitor, partial curve] |  |
| O=C(CSc1nc(-c2ccc(Cl)cc2)cs1)Nc1cccc([N+](=O)[O-])c1 | inconclusive: 10 µM [quencher, side channel, partial curve] |  |
| COc1ccc(S(=O)(=O)n2nc(-c3ccc(Cl)cc3)cc2N)cc1OC | inconclusive: 10 µM [quencher, side channel, partial curve] |  |
| CNC(=O)c1[nH]nc2c1CCc1cc(OC)ccc1-2 | inconclusive: 31.6 µM [inhibitor, partial curve] |  |
| CC1CCN(CC(=O)N2CCCc3c2c(=O)oc2ccc(OCc4ccccc4)cc32)CC1 |  | inactive: -4.38% |
| COc1ccccc1/C=C/c1nc(S(=O)(=O)c2ccccc2)c(N2CCC(C(N)=O)CC2)o1 | inconclusive: 17.8 µM [quencher, side channel, partial curve] |  |
| CC1CCN(C(=O)Cn2c(=O)oc3ccccc32)CC1 | inconclusive: 35.5 µM [inhibitor, partial curve] |  |
| O=S(=O)(NCC1CCN(S(=O)(=O)c2ccccc2)CC1)c1ccccc1 |  | inactive: 22.5% |
| C=CCNC(=O)c1cc([N+](=O)[O-])cc2c(=O)[nH]c(Nc3ccc(Cl)c(Cl)c3)nc12 | inconclusive: 1.78 µM [quencher, side channel, partial curve] |  |
| CC(C)=C1C(=O)NN(c2ccc(F)c(Cl)c2)C1=O | inconclusive: 28.2 µM [quencher, side channel, single point] |  |
| O=C(Nc1ccc2c(c1)OCO2)C1CCCN(c2nc3ccccc3s2)C1 (stereo not given) | inconclusive: 10 µM [quencher, side channel, partial curve] |  |
| O=C(NC1CCCC1)c1ccc2nc(-c3ccco3)c(-c3ccco3)nc2c1 | inconclusive: 28.2 µM [quencher, side channel, partial curve] |  |
| CC(/C=N/Nc1nnc2c(n1)[nH]c1ccccc12)=C\c1ccco1 | inconclusive: 8.91 µM [quencher, side channel, full curve] |  |
| Cn1c2c(c(=O)c3ccccc31)C[C@@H](O)C(C)(C)O2 |  | inactive: 12.7% |
| CC(C)(C)c1ccc(C(=O)N2CCC(C(=O)NC3CCCCCC3)CC2)cc1 | inconclusive: 7.94 µM [inhibitor, full curve, poor fit] |  |
| CN(C)S(=O)(=O)N(CC(=O)Nc1ccc(F)c(F)c1)c1ccccc1 | inconclusive: 39.8 µM [quencher, side channel, single point] |  |
| COc1ccc(CCNC(=O)CN2C(=O)CCSc3ccccc32)c(OC)c1 | inconclusive: 10 µM [inhibitor, partial curve] |  |
